Over roughly 33,000 sequences, “E-score (-0.5 to 0.5)” has its median near -0.032; the highest 2% begin near 0.36. The list shows a part of the results.
Target: T1, Sko1 (UniProt Q02100)
T1 sequence: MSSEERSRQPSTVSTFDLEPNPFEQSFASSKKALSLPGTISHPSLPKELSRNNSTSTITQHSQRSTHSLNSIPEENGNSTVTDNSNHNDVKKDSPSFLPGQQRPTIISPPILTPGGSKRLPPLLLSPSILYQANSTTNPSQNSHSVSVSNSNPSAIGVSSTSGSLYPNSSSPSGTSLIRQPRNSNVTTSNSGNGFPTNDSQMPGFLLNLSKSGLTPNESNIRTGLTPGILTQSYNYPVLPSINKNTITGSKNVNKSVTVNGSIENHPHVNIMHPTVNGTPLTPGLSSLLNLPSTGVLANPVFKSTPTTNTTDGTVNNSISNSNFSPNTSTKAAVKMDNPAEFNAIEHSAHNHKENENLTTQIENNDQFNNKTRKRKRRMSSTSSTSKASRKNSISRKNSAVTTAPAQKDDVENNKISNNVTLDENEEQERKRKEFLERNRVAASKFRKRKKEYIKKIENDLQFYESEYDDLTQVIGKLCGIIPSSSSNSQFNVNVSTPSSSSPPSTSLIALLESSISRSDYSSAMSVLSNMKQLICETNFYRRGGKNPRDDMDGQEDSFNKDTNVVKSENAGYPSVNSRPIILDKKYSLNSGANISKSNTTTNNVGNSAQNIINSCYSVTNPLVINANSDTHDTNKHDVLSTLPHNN
Assay: PBM E-score (8-mer binding enrichment) (E-score (-0.5 to 0.5)); higher = stronger / more preferred TF binding; most listed sequences are background and not binding sites
Details: protein concentration: 200 nM; construct: GST-full length
Summary of the method: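 Each ungapped eight-base word and its reverse complement, pooled, received an E-score from the Universal PBM Analysis Suite. Underlying scans, normalised with masliner, recorded fluorescent anti-GST bound to GST-tagged yeast transcription factors. These were applied at about 100-200 nM to universal all-10-mer Agilent arrays double-stranded by primer extension.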

Sequence | PBM E-score
CGCCTGGC | -0.237
ACAAGACG | 0.0437
GAAGGTGA | -0.0629
ACTACTGA | -0.0569
GGGATGAA | -0.182
AAAACTTC | 0.0632
AGTGCTTC | -0.119
AGCATTAC | 0.188
ACTGCCGG | -0.291
AAAGTATC | 0.164
ATAAACCA | 0.0234
ATCGCCTC | -0.0716
AATCTCCG | -0.111
TGCCTGAA | 0.052
CTCGGCCC | -0.282
ACTCACAG | -0.115
CTCCGATC | -0.329
AGGAATAG | 0.0594
GAGGCATA | -0.0336
CATTTCAA | 0.182
GCTGGAAA | -0.163
AGCTGACC | -0.104
CGCGAACG | 0.0557
AAACGATC | -0.0574
CGGCCTCC | -0.213

Sequence | PBM E-score
GAATAGGC | -0.153
AAGGCCGA | -0.188
ACCTACGC | 0.293
AGTAACAT | 0.122
AGACGTAG | 0.382
ATGGACGC | 0.233
GATCCTCA | -0.00364
AGGGCACA | -0.0631
GGGATCCC | -0.368
ATGCCAGC | -0.11
CAGTCTCA | -0.0507
AGCATGAT | 0.0123
ACACTGAA | 0.0856
GCGACAAA | 0.0546
ATCTCAAA | 0.156
GATATCAA | 0.166
GAACTGCA | -0.0801
GACTCCAA | -0.102
TGTGGCAA | -0.0674
CATGGGAG | -0.188
CAAGACTA | 0.0299
CCTGACCA | -0.0279
GCTACAGA | -0.2
CGCGGTAG | -0.0454
CAGACTTA | 0.0358

Sequence | PBM E-score
AGATTGAA | 0.00483
TCTCCGAA | -0.136
AACATACC | 0.0441
TCATACCA | 0.201
ACAGGATA | 0.00994
GCGGTAAA | 0.0288
ATACCTCC | -0.333
ACGCTCCA | -0.0856
CCCGCCCG | -0.126
ACCTCCCC | -0.277
ATTGTCTA | 0.158
ATCTGATA | -0.155
GCAATCGC | -0.0251
AATGGCTC | -0.0633
CGTAGGCA | 0.0648
CTAATTGA | 0.0758
CCACAATA | -0.0383
ATAACAAC | 0.107
ATATTAAC | 0.192
GCTCGTTA | -0.131
CCTAACTC | 0.022
CAAACGTC | 0.329
GCATACCC | -0.185
CTCTGCCA | -0.0901
CTCGGACA | -0.211

Sequence | PBM E-score
CAGTCTCG | -0.0725
ATACAGGG | -0.113
CTCTACTA | -0.0524
ATACGCGA | 0.281
AATACGAT | 0.224
CCGATGCA | -0.13
GTTGGCGA | -0.086
CCGGATCA | -0.251
CCTGTGCC | -0.224
GATAGCGA | 0.0432
ATACCGCA | -0.0236
CTGGTCCA | -0.182
CCAGCTAG | 0.0505
AGAAGAAG | -0.281
CTCAGGCA | -0.256
ATACAGAG | -0.0247
GCCGCAAC | -0.0542
ATCAACGC | 0.0933
GGTGCCCA | -0.233
AGTACGTG | 0.365
AAAATCCC | -0.142
GCTGACAA | 0.0038
CTTGCAAC | 0.0967
AAGCCTGA | -0.151
GTACTAGA | 0.205

Sequence | PBM E-score
ACTTACAG | 0.0538
CGCGGTCA | -0.123
ACTTAGTA | 0.0606
ACATCGGG | -0.199
GAACCTAC | 0.0497
ACTCCGTC | 0.105
GCCCGAAC | -0.24
CTCTCGGC | -0.296
AAGTGGGA | 0.0345
AGCTAGCC | -0.226
CCTCAACC | -0.16
GGAAGGAA | -0.213
AGTCCCTC | -0.33
ATTCGAGA | -0.0173
AAGGTATG | -0.0471
ACTTGTGA | 0.0538
ACCCACCC | -0.0216
GGTAGTAC | -0.0421
CTCCCGCA | -0.197
GACATCAA | 0.275
AACACAAG | 0.0471
AGAAAGCA | 0.163
TGAAAACA | 0.159
ATCTATAC | 0.147
CCACTCCC | -0.334

Sequence | PBM E-score
CGGCTTGC | -0.059
AACACAGC | 0.075
GGTTGGGA | -0.0888
CAGGCGGC | -0.207
CATATCGA | 0.00288
CTCAACAC | 0.141
ACACTTAT | 0.113
ACCGTACT | 0.00383
AATCCTCT | -0.183
CACTTCAG | -0.208
ACCGTTGA | -0.16
CTGACCCC | -0.2
CACTACGC | 0.209
ATCCAGGA | -0.288
GAGCAAAA | -0.0985
CAACTGCG | -0.0192
CTCCCTCC | -0.324
AACCATAC | 0.0263
TGACTACA | 0.177
ACATTCGG | -0.158
GAACAGCC | -0.136
CAGGTAGG | -0.175
CACTTGGA | -0.0229
ACTAGTAA | 0.0995
AGAGTCAC | 0.074

Sequence | PBM E-score
AGGCCCTA | -0.223
AGATACTA | -0.0875
AGCCATCA | 0.148
GACTGAAA | -0.142
CGAAAACC | 0.117
AATATTAT | 0.205
CGTTAACC | 0.126
TCTAGGAA | -0.0779
GAGAAAGA | -0.0919
GGTTGGCA | -0.0984
CTAAGTCA | 0.0862
CATTCGTC | 0.304
AATTCGCC | 0.111
ATAGCTGC | 0.0957
GCGGGCAA | -0.102
CCCAACTA | 0.00148
CCCGAGAG | -0.322
CTACGTGA | 0.404
CCCATCTA | -0.144
ACACCATA | 0.0576
ACTACGTA | 0.484
ATGATCCA | -0.207
AATATTGT | 0.231
GCGTTTGA | -0.00543
AGCATATC | -0.0137

Sequence | PBM E-score
TAACCATA | 0.107
AATCTAAC | 0.124
CTGCCATA | -0.0751
AGCGCTAC | -0.0646
AAAGAGGG | -0.0821
GTAGATGA | 0.16
GGCGAAAC | -0.191
TGGATCCA | 0.0102
AATCTTAG | -0.0134
AGTGTTAT | 0.0725
ATTTGCGC | -0.0334
GATCCCAC | -0.0209
AAAAGGGT | -0.0508
TCGGATAA | -0.00727
TCTTATAA | 0.0225
ATCGCCGA | -0.0393
AGTCCCCA | -0.281
CGGTCAGA | -0.121
CGCGTAAC | 0.332
CAGCGCTC | -0.238
TCACTCCA | -0.019
ATTAAAGC | 0.0316
CTTCGCGA | -0.165
CGTTATAA | 0.27
TCAGGTAA | -0.0329

Sequence | PBM E-score
AAATGGAC | 0.114
AGCAGTTC | 0.0374
AGGCCATC | -0.0882
TACGGGGA | -0.0747
ATCAGCCA | -0.214
AGACTGTG | -0.0493
CTAATGTC | 0.0291
ATATCCGC | -0.031
CAAAAAGG | -0.113
AGTTGTTC | 0.0782
GTACGGAA | -0.00063
ATATCGGA | -0.0255
CAGCCTGG | -0.188
CTCCTACC | -0.19
TACCCGTA | -0.127
CTCCATTC | -0.169
CACAGTAC | 0.019
CTACGGTC | -0.157
AAATCATT | 0.171

From the supplement of paper PMC3334620
